In PubChem BioAssay AID485294 (National Center for Advancing Translational Sciences (NCATS), 2010):
Among all 370,000 compounds or so, about 150 (0.041%) were called active. The shares of active, inactive and inconclusive entries below differ from those in the screen. Calls come from the whole dose curve; as a rule, active = well fitted inhibition curve with a large enough effect; inconclusive = small, poorly fitted or top-dose-only effect; inactive = flat fitted curve, though single readings scatter. No potency is given beside an inconclusive call; the fits are too rough. Peptide text beside a SMILES is read from it. * marks the point of attachment. Bz = O=C(c1ccccc1)*

target: Beta-lactamase (Escherichia coli (strain K12)) (UniProt P00811); test: qHTS Inhibitors of AmpC Beta-Lactamase (assay with detergent); conditions: AmpC hydrolysis of nitrocefin, absorbance 480 nm, 0.01% Triton; series mostly up to 114 µM; note: nearly all actives have a fitted effect of over 25% in size
Chain of UniProt P00811 (P00811 whole entry, looked up): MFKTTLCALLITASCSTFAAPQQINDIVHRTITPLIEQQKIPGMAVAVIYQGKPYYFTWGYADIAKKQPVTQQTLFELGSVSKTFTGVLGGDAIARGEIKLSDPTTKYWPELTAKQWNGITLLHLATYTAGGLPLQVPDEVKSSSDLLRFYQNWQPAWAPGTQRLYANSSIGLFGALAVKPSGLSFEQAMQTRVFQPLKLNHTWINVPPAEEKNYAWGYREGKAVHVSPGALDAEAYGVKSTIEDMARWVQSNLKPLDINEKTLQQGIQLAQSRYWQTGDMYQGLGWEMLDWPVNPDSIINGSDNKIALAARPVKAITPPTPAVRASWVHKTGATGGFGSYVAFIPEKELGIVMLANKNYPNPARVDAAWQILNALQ
Method in brief: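 20 mM phosphate pH 7.0 + 0.01% (detergent screen) or 0.0001% Triton X-100; 5.3 nM AmpC reagent; cpd preinc 15 min RT; nitrocefin (800 uM stock) to start; A480 q20 s × 4 min; Activity was normalised to no-enzyme and no-compound control wells.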
Potency is the fitted concentration of half-maximal effect; tags give direction and shape of the fitted curve.

Row | SMILES | Potency
1 | COC(=O)c1nn2c(C(F)(F)F)cc(-c3ccc(Br)o3)nc2c1Br | inconclusive [inhibitor, full curve, poor fit]
2 | CCOc1ccc(-c2nn3c(-c4ccc(OC)cc4)nnc3s2)cc1 | inconclusive [inhibitor, full curve, poor fit]
3 | COc1cc(Cl)c(C)cc1NC(=O)CSC | inconclusive [inhibitor, partial curve, poor fit]
4 | CC(C)(C)Sc1ccc2nc3c(n2c1)CCCC3 | inactive
5 | COc1cccc(C(=O)CN2CCN(S(=O)(=O)c3ccc(Cl)cc3)CC2)c1 | inactive
6 | O=C(COC(=O)c1ccc(Br)o1)Nc1ccc(S(=O)(=O)N2CCCC2)cc1 | inconclusive [inhibitor, full curve, poor fit]
7 | Brc1ccccc1-c1nnc(CSc2nnnn2-c2ccccc2)o1 | inconclusive [inhibitor, full curve, poor fit]
8 | O=C(NCc1ccccn1)c1ccc2ccccc2n1 | inconclusive [inhibitor, partial curve]
9 | CC(C(=O)NC1CCCC1)N1C(=O)c2cccc3cccc1c23 (stereo unspecified) | inactive
10 | O=C(NNC(=O)c1ccccc1F)c1ccc2[nH]c(=O)c(=O)[nH]c2c1 | inactive
11 | Cc1ccc(/C=C2/NC(=O)N(Cc3ccccc3)C2=O)s1 | inactive
12 | CCOC(=O)c1c(-c2ccc(C)o2)csc1NC(=O)CN1CCN(CC)CC1 | inconclusive [inhibitor, full curve]
13 | O=C(Cn1cnc2ccccc21)Nc1ccccc1-c1ccccc1 | inconclusive [inhibitor, full curve, poor fit]
14 | Cc1ccc2[nH]c3c(c2c1)CN(C(=O)CN1CCN(c2ccccn2)CC1)CC3 | inconclusive [inhibitor, full curve]
15 | Nc1cc(=O)[nH]c(=S)n1-c1cccc(C(F)(F)F)c1 | inconclusive [inhibitor, single point]
16 | Cc1cc(Nc2ccc(F)cc2F)n2ncnc2n1 | inconclusive [inhibitor, partial curve, poor fit]
17 | CN(Cc1ccccc1F)C(=O)CCCNC(=O)c1ccc(Cl)cc1 | inactive
18 | CCOC(=O)c1ccc(-c2c(-c3ccccc3OC)sc3cc4c(cc23)OCO4)cc1F | inactive
19 | O=C(c1cccc(F)c1)N1CCN(S(=O)(=O)c2ccccc2)CC1 | inconclusive [inhibitor, partial curve, poor fit]
20 | CC(C)Cc1cc(C(=O)Nc2cccnc2)no1 | inconclusive [inhibitor, full curve, poor fit]
21 | COc1cc2c(C(=O)N3CCN(c4cccc(C)c4)C(C)C3)cn(CC(C)C)c(=O)c2cc1OC (stereo unspecified) | inactive
22 | FC(F)(F)c1nnc2ccc(NCc3cccnc3)nn12 | inconclusive [inhibitor, partial curve, poor fit]
23 | CCc1ccccc1-n1c(SCC(=O)NC)nnc1-c1ccco1 | inconclusive [inhibitor, partial curve]
24 | Cc1c(S(=O)(=O)N2CCCCC2)c(=O)n(C)c(=O)n1C | inconclusive [inhibitor, full curve, poor fit]

Row | SMILES | Potency
25 | COCCOC(=O)C1=C(C)Nc2ncnn2C1c1ccccc1 (stereo unspecified) | inconclusive [inhibitor, full curve, poor fit]
26 | CCN(C(=O)CSc1nc(C)nc2sc(C)c(C)c12)c1ccc(F)cc1 | inconclusive [inhibitor, full curve, poor fit]
27 | CC(SC1=NCCS1)C(=O)Nc1nnc(-c2ccc(Br)cc2)s1 (stereo unspecified) | inconclusive [inhibitor, full curve, poor fit]
28 | O=S(=O)(c1ccc(F)cc1)N1CCCc2ccccc21 | inconclusive [inhibitor, full curve, poor fit]
29 | CNC(=O)c1csc(-c2cccs2)n1 | inconclusive [inhibitor, partial curve, poor fit]
30 | COc1ccc(C(=O)c2c[nH]c(C(=O)N=CN(C)C)c2)cc1 | inactive
31 | Cc1nc2c(s1)sc1ccccc12 | inconclusive [inhibitor, partial curve]
32 | CCOc1ccc(NC(=O)Cn2c(CCC(=O)O)ccc2-c2ccc(Cl)cc2)cc1 | inactive
33 | COc1ccc(OC)c2sc(NC(=O)c3ccc(S(=O)(=O)N(C)C)cc3)nc12 | inconclusive [inhibitor, partial curve]
34 | CCOc1ccc(C2NC(=O)NC(C)=C2C(=O)OCc2ccccc2)cc1 (stereo unspecified) | inconclusive [inhibitor, partial curve, poor fit]
35 | O=C(CC1SC(=O)N(c2ccccc2)C1=O)Nc1ccc(Cl)cc1 (stereo unspecified) | inactive
36 | CC1CCCCC1NC(=O)COC(=O)c1c2c(nc3ccccc13)/C(=C/c1ccco1)CC2 (stereo unspecified) | inconclusive [inhibitor, full curve]
37 | Cn1c(CNC(=O)CNC(=O)Cc2ccccc2)cc(=O)n(C)c1=O | inconclusive [inhibitor, full curve, poor fit]
38 | CCCc1nnc(NC(=O)c2ccc([N+](=O)[O-])cc2)s1 | inconclusive [inhibitor, partial curve]
39 | O=C1CCC(C(=O)OCc2cc(Cl)ccc2OC(F)F)N1 (stereo unspecified) | inconclusive [inhibitor, partial curve, poor fit]
40 | Cn1c(=O)n(C)c2cc(NC(=O)COc3ccc(F)cc3)ccc21 | inconclusive [inhibitor, full curve, poor fit]
41 | CN(C)c1nc(N)nc(CSc2nc3cc(Cl)ccc3o2)n1 | inconclusive [inhibitor, partial curve]
42 | O=C(Nc1ccc(N2CCCC2)c(Cl)c1)c1ccco1 | inconclusive [inhibitor, partial curve, poor fit]
43 | O=C(C[n+]1ccccc1)Nc1ccccc1[N+](=O)[O-] | inactive
44 | Cc1cc2oc(=O)cc(CN3CCCCC3)c2cc1C(C)C | inconclusive [inhibitor, full curve]
45 | O=C(CCC1CCCC1)N1CCN(C(=O)COc2ccccc2)CC1 | inconclusive [inhibitor, full curve, poor fit]
46 | Fc1ccccc1OCCCCCN1CCCC1 | inactive
47 | COC(=O)C(NC(=O)C(NC(=O)c1ccccc1)C(C)C)C(C)C (stereo not drawn) (Bz-Val-Val-OMe; configuration not given here) | inconclusive [inhibitor, full curve]
48 | COc1cccc(C(=O)Nc2cc(OC)ccc2NC(=O)c2ccco2)c1 | inactive

Row | SMILES | Potency
49 | C=CCNc1nc(-c2c(C)nc3sccn23)cs1 | inactive
50 | O=C(NC(C(=O)c1ccccc1)N1CCOCC1)c1cccs1 (stereo unspecified) | inactive
51 | O=C(N/N=C/c1[nH]c2ccccc2c1Cl)c1cccc(Br)c1 | inactive
52 | CCCCOc1ccc(C(=O)NCC(=O)NCc2ccncc2)cc1 | inconclusive [inhibitor, full curve, poor fit]
53 | Cc1ccc(C)c(NC(=O)CCc2c(C)n(C)c3cc(-c4ccccc4C)nn3c2=O)c1 | inactive
54 | COc1ccc(NC(=O)CN2CCN(CC(=O)Nc3ccccc3Cl)CC2)c(OC)c1 | inactive
55 | Cc1ccc(Cl)cc1N1C(=O)CC(Sc2ncccn2)C1=O (stereo unspecified) | inactive
56 | COc1ccc([C@H]2CC(=O)C=C(c3cc(C)ccc3OC)C2)cc1 | inactive
57 | CC1CCCCC1NC(=O)c1ccc(S(=O)(=O)NCc2ccco2)cc1 (stereo unspecified) | inconclusive [inhibitor, single point]
58 | Cn1nc(-c2ccc(Cl)cc2)c2cc(C(=O)N3CCN(c4ccccc4)CC3)sc21 | inconclusive [inhibitor, partial curve, poor fit]
59 | O=c1c2ccccc2nc(SCc2cccc(F)c2)n1C1CCCC1 | inconclusive [inhibitor, full curve, poor fit]
60 | CC1CCN(c2oc(-c3ccccc3F)nc2C#N)CC1 | inconclusive [inhibitor, full curve, poor fit]
61 | C[C@]12CC[C@@H]3c4ccc(O)cc4CC[C@H]3[C@@H]1C[C@@H](O)[C@@H]2O | inactive
62 | O=C(CCNC(=O)c1ccccc1Cl)NCC1COc2ccccc2O1 (stereo unspecified) | inactive
63 | Cc1sc2ncn(CC(=O)NCCCC(=O)N3CCC(C)CC3)c(=O)c2c1C | inconclusive [inhibitor, full curve]
64 | CCOC1(OCC)C(c2ccc(N)cc2)C(C#N)(C#N)C1(OCC)OCC (stereo unspecified) | inconclusive [inhibitor, full curve]
65 | CN(C)CCCO[C@@H]1[C@H]2OC(C)(C)O[C@H]2O[C@@H]1[C@H](O)CO | inconclusive [inhibitor, partial curve, poor fit]
66 | CN(C(=O)c1cccnc1)c1nnc(-c2cnccn2)s1 | inconclusive [inhibitor, partial curve]
67 | COc1ccc(OC)c(NC(=O)N2C[C@H]3C[C@@H](C2)c2cccc(=O)n2C3)c1 | inconclusive [inhibitor, full curve, poor fit]
68 | C/C(=N\Nc1nc2c(s1)CCCC2)c1ccccc1 | inactive
69 | CN(C)S(=O)(=O)Nc1ccc(-c2cn3ccsc3n2)cc1 | inactive
70 | CCSc1nc2ccccc2n1CC(N)=O | inconclusive [inhibitor, partial curve, poor fit]
71 | O=C(NC1CC2CCCC(C1)N2C(=O)Nc1ccc(Cl)c(C(F)(F)F)c1)C1CC1 (stereo unspecified) | inconclusive [inhibitor, full curve, poor fit]
